Measured values: patent US7087375B1, “Method for determining the mechanism of HIV RT inhibitors” (priority 2000, dated 2006)
“And” between values parts separate entries of the source, which are not always exact repeats. Equal entries are not always repeated.

Columns and labels:
[1] = system: HXB2 site-directed mutant M41L, D67N, K70R, T215Y; format: cell-based; details: virus M41L
[2] = system: HXB2 site-directed mutant M41L, D67N, K70R, M184V, L210W, R211K, L214F, T215Y; format: cell-based; details: virus M41L
[3] = system: HXB2 site-directed mutant M41L, T69S-SS, L210W, R211K, L214F, T215Y; format: cell-based; details: virus M41L
[4] = system: HXB2 site-directed mutant M41L, T69S-SG, L210W, R211K, L214F, T215Y; format: cell-based; details: virus M41L
[5] = system: HXB2 site-directed mutant M41L, T69S-AG, L210W, R211K, L214F, T215Y; format: cell-based; details: virus M41L
[6] = biological target: HIV-1 RT with mutations D67N, K70R, T215F and K219Q (Human immunodeficiency virus type 1 group M subtype B, UniProt P04585, D654N/K657R/K806Q/T802F); details: with PPi; cited from earlier work
[7] = system: HIV-1 with RT mutations D67N, K70R, T215F, K219Q; details: cited from earlier work

Compound | Fold resistance in IC50 relative to HXB2 [1] | Fold resistance in IC50 relative to HXB2 [2] | Fold resistance in IC50 relative to HXB2 [3] | Fold resistance in IC50 relative to HXB2 [4] | Fold resistance in IC50 relative to HXB2 [5] | higher IC50 of mutant RT vs wild type [6] [fold] | increase in IC50 observed with the virus [7] [fold]
Nc1ccn([C@@H]2CS[C@H](CO)O2)c(=O)n1 [3TC, lamivudine] | 2.5 fold | >129 fold | 7.4 fold | 20.3 fold | 10.1 fold |  | 
Cc1cn([C@H]2C=C[C@@H](CO)O2)c(=O)[nH]c1=O [d4T, stavudine] | 4.1 fold and 4.1 +/− 1.3 fold | 4.0 fold and 4.0 +/− 1.3 fold | 3.3 fold | 8.3 fold and 8.3 +/− 1.8 fold | 17.7 fold and 17.1 +/− 0.6 fold |  | 
Nc1nc(NC2CC2)c2ncn([C@H]3C=C[C@@H](CO)C3)c2n1 [Abacavir, abacavir] | 1.4 fold | 10.4 fold | 10.3 fold | 12.0 fold | 13.2 fold |  | 
AZT-TP |  |  |  |  |  | 3 | 
Nc1ccn([C@H]2CC[C@@H](CO)O2)c(=O)n1 [ddC, zalcitabine] | 0.8 fold | 7.7 fold | 2.4 fold | 4.8 fold | 3.0 fold |  | 
O=c1[nH]cnc2c1ncn2[C@H]1CC[C@@H](CO)O1 [ddI, didanosine] | 0.9 fold | 8.7 fold | 3.4 fold | 4.4 fold | 6.5 fold |  | 
Cc1cn([C@H]2C[C@H](N=[N+]=[N-])[C@@H](CO)O2)c(=O)[nH]c1=O [AZT, zidovudine] | 24 fold and 24.1 fold and 24.1 (+/−14) fold | 16 fold and 16.0 fold and 16.0 (+/−2) fold | > 111 fold and >67 fold | > 96 fold | > 96 fold |  | 100
